# Out of some 350,000 compounds screened, about 9,900 (2.8%) were called active. Inconclusive results, whose numbers are uncertain, are shown with a selection of clear calls. Calls come from the whole dose curve; as a rule, active = well fitted activation curve with a large enough effect; inconclusive = small, poorly fitted or top-dose-only effect; inactive = no such curve, though single readings can be large or run the other way. No potency is given beside an inconclusive call; the fits are too rough.
# Assay: A quantitative high throughput screen for small molecules that induce DNA re-replication in MCF 10a normal breast cells. For activity, positive = re-replication: % of control where 0% means no effect. Note: nearly all actives have a fitted effect of over 50% in size.
# Settings: MCF 10A DNA re-replication, Hoechst nuclear intensity, 48 h; activity, positive = re-replication: at 46.1 µM (top of the series)
# Potency is the fitted concentration of half-maximal effect; tags give direction and shape of the fitted curve.
SMILES,Potency,"activity, positive = re-replication"
COCCNC(=S)N/N=C1\CC(C)CC(C)(C)C1 (stereo unspecified),"inconclusive [activator, partial curve, poor fit]",–
CN(CC(=O)O)S(=O)(=O)c1ccc(F)cc1,"inconclusive [activator, full curve, poor fit]",–
Cc1cccc(NC(=O)CSc2nc3ccccc3nc2N2CC(C)OC(C)C2)c1 (stereo unspecified),"inconclusive [activator, single point]",–
O=C(Nc1ccccc1)OCC1COC(c2ccccc2)(c2ccccc2)O1 (stereo unspecified),"inconclusive [activator, partial curve]",–
O=C(NC(=S)Nc1ccc(N2CCOCC2)cc1)c1ccccc1,–,inactive: 9.43%
CC(=O)Nc1ccc(NC(=O)CSc2nc(C)nc3sc(C)c(C)c23)cc1,"inconclusive [activator, single point]",–
Cc1c(C(=O)Nc2ccc(Br)cc2)cnn1C,–,inactive: 2.09%
COc1cccc(NC(=O)CSc2nc3scc(C)c3c(=O)[nH]2)c1,"inconclusive [activator, full curve, poor fit]",–
O=C(Oc1ccc2c(c1)OCO2)c1ccncc1,"inconclusive [activator, partial curve, poor fit]",–
O=C(Nc1cccc(C(=O)N2CCOCC2)c1)c1ncn[nH]1,"inconclusive [activator, single point]",–
COc1ccccc1N(C)S(=O)(=O)c1ccc(C(=O)Nc2ccncc2)cc1,"inconclusive [activator, single point]",–
NNC(=O)c1cc2cc(Oc3ccccc3)ccc2[nH]1,"inconclusive [activator, single point]",–
COc1ccc(Nc2nc(C)cc(C)n2)cc1Cl,–,inactive: 3.82%
COc1ccc(OCc2nnc(NC(=O)Nc3ccccc3F)s2)cc1,"inconclusive [activator, single point]",–
CN(CCOc1ccccc1)S(=O)(=O)c1ccc2oc3ccccc3c2c1,"inconclusive [activator, single point]",–
CC(=O)c1cccc(NC(=O)c2ccc(N(Cc3ccccc3C)S(C)(=O)=O)cc2)c1,"inconclusive [activator, full curve]",–
COc1ccc(S(=O)(=O)N2CCc3ccccc32)cc1C(=O)NCCc1ccc(S(N)(=O)=O)cc1,–,inactive: -1.93%
CCCCCCCCSc1nnc2[nH]c(=O)cc(N)n12,"inconclusive [activator, single point]",–
CCOc1ccc(C(=O)Nc2cc(-c3nc4ccccc4[nH]3)ccc2Cl)cc1[N+](=O)[O-],"inconclusive [activator, single point]",–
COc1ccccc1/C=C/C=N/n1c(C2CCCCC2)n[nH]c1=S,"inconclusive [activator, partial curve]",–
COc1ccccc1N=Nc1[nH]c2ccc(C)cc2c1O,–,inactive: -1.32%
Cc1sc2ncnc(N3CCC(C)CC3)c2c1C,"inconclusive [activator, single point]",–

SMILES,Potency,"activity, positive = re-replication"
CCCN1CCN(CCCNC(=O)c2ccc3c(Cl)c4c(nc3c2)CCCC4)CC1,–,inactive: 13.4%
COc1ccc(-c2csc(Nc3ccccc3)n2)cc1,"inconclusive [activator, single point]",–
CCN(c1ccccc1)S(=O)(=O)c1ccc(Cl)c(NC(=O)CN2CCCCCC2)c1,"inconclusive [activator, single point]",–
CCOc1ccc(Nc2nc(Cc3nnc(SCC(=O)NC4CCCC4)n3C)cs2)cc1,"inconclusive [activator, single point]",–
Oc1c(C(Nc2ccccn2)c2ccccn2)ccc2cccnc12 (stereo unspecified),"inconclusive [activator, single point]",–
Cc1cc(C)nc(NC(=O)CSc2nnnn2-c2ccccc2)n1,–,inactive: 0.545%
CCOC(=O)COc1ccccc1/C=N\NC(=O)c1cc2c(ccc3ccccc32)o1,"inconclusive [activator, single point]",–
COc1ccc(N(C(=O)c2ccc(Br)o2)C2C=CS(=O)(=O)C2)cc1 (stereo unspecified),"inconclusive [activator, single point]",–
O=C1CSC(c2ccc([N+](=O)[O-])cc2)N1Cc1ccccc1 (stereo unspecified),"inconclusive [activator, single point]",–
O=C1N/C(=N\N=C\c2ccccn2)SC1Cc1cccc(SC(F)F)c1 (stereo unspecified),"inconclusive [activator, full curve]",–
CN(Cc1ccco1)C(=O)C1CCC(=O)N(CCc2cccc(F)c2)C1 (stereo unspecified),"inconclusive [activator, partial curve, poor fit]",–
C[C@H]1CN[C@@H](CCO)/C1=C\c1ccccc1,–,inactive: -5.98%
COc1cccc(-c2noc(Cn3nc(C)c([N+](=O)[O-])c3C)n2)c1,"inconclusive [activator, partial curve, poor fit]",–
Cc1[nH]n(C(N)=S)c(=O)c1N=Nc1ccc([N+](=O)[O-])cc1Cl,"inconclusive [activator, single point]",–
Cc1ccc(N=Nc2c(N)[nH]n3c(=O)cc(-c4ccccc4)nc23)cc1,"inconclusive [activator, full curve]",–
O=C(Cc1ccc(S(=O)(=O)N2CCOCC2)s1)OCc1ccc(Cl)cc1,"inconclusive [activator, partial curve, poor fit]",–
Cc1ccc(Cn2c(Cc3ccccc3)nc3ccccc32)cc1,"inconclusive [activator, single point]",–
Cn1c2ccc(F)cc2c2ncn(Cc3ccco3)c(=O)c21,"inconclusive [activator, single point]",–
Cc1cccc(Nc2nc(N)nc(-c3oc4ccccc4c3C)n2)c1,active: 16.4 µM,–
COc1ccccc1NS(=O)(=O)c1cccc(NC(=O)NCCCl)c1,–,inactive: 1.4%
O=C(Nc1cccc(-c2nc3ccccc3[nH]2)c1)c1cccc(NC(=O)c2ccco2)c1,"inconclusive [activator, single point]",–
CCOc1ccc(N(Cc2ccc(C(=O)O)cc2)S(=O)(=O)c2ccc(C)cc2)cc1,active: 3.66 µM,–

SMILES,Potency,"activity, positive = re-replication"
O=S(=O)(c1cccc2ccccc12)N1CCC2CC1c1cc(Cl)ccc12 (stereo unspecified),"inconclusive [activator, full curve, poor fit]",–
Cc1ccc(S(=O)(=O)N2CCCCC2)cc1NC(=O)CSc1nccn1C,"inconclusive [activator, partial curve, poor fit]",–
CCCOc1ccc(-c2c(=O)n(O)c3ccccc3[n+]2[O-])cc1,"inconclusive [activator, single point]",–
Cc1sc2ncnc(N3CCC(C(=O)Nc4nc5ccc(Cl)cc5s4)CC3)c2c1C,"inconclusive [activator, single point]",–
O=C(Nc1nnc(-c2ccc(F)cc2)o1)c1ccc(S(=O)(=O)N2CCOCC2)cc1,–,inactive: 8.11%
CC(C)CN(CC(C)C)CC(O)COc1ccccc1Br (stereo unspecified),"inconclusive [activator, partial curve]",–
O=C(NCc1ccc(Cl)cc1)C1CCC(CNc2c(N3CCOCC3)c(=O)c2=O)CC1 (stereo unspecified),"inconclusive [activator, partial curve, poor fit]",–
CCOC(=O)N1CCN(Cc2cc(Cl)c3cccnc3c2O)CC1,"inconclusive [activator, single point]",–
C=C1[C@@H](O)[C@H](Cc2ccccc2)N(Cc2ccccc2Br)S1(=O)=O,active: 20.6 µM,–
Cc1nc(NC(=O)c2ccccc2)sc1C1(C)CC(c2c(Cl)cccc2Cl)=NO1 (stereo unspecified),"inconclusive [activator, partial curve, poor fit]",–
CC1=CC(=O)N(c2cccc3c(N4C(=O)C=C(C)C4=O)cccc23)C1=O,"inconclusive [activator, partial curve]",–
Cc1cccc(OCC(=O)NC(=S)Nc2ccccc2N2CCOCC2)c1,–,inactive: 5.85%
CN1CCN(C(=O)C2CC(=O)N(c3ccc(Cl)cc3)C2)CC1 (stereo unspecified),–,inactive: -13.1%
Cc1nc(-c2cccc(Cl)c2)n[nH]1,"inconclusive [activator, single point]",–
CC(C)c1c(C(=O)N/N=C/c2cccc(OCc3ccc(F)cc3)c2)nnn1-c1nonc1N,"inconclusive [activator, single point]",–
CSc1cccc(NC(=O)NCc2cccc(CNC(=O)Nc3cccc(SC)c3)c2)c1,active: 7.31 µM,–
O=C(Nc1ccc(N2CCOCC2)c(Cl)c1)c1ccc(-n2cnnc2)cc1Cl,"inconclusive [activator, single point]",–
O=C(/C=C/c1ccc2c(c1)OCO2)NCCSCc1cccc(Cl)c1,"inconclusive [activator, partial curve]",–
O=C1CCC(C(=O)N2CCCCCCC2)CN1Cc1cccc(C(F)(F)F)c1 (stereo unspecified),"inconclusive [activator, single point]",–
Cc1ccc(N=Cc2nc(/C=C/c3cccc([N+](=O)[O-])c3)oc2O)cc1,"inconclusive [activator, partial curve, poor fit]",–
Cc1cc(Oc2nc3c(C)cccn3c(=O)c2/C=C(\C#N)S(=O)(=O)c2ccccc2)ccc1Cl,"inconclusive [activator, partial curve, poor fit]",–
O=C(COc1ccc2c(c1)OCO2)Nc1ccc2c(c1)oc1ccccc12,"inconclusive [activator, single point]",–

# From PubChem BioAssay AID624296 (National Center for Advancing Translational Sciences (NCATS), 2012)
